One block for each binder: values may come before it.
Key:
[1] = molecular target: T1, human 4-1BB (human, UniProt Q07011 24-255); assay: FACS, CHO-K1/h4-1BB cells [K]
T1 construct: whole, on cells; also called CD137; TNFRSF9

[2] = molecular target: T2, cynomolgus monkey 4-1BB (cynomolgus monkey); assay: FACS, CHO-K1/cyno 4-1BB cells [B]
T2 construct: whole, on cells; also called CHO-K1-cyno 4-1BB; CHO-K1/cyno4-1BB

[3] = molecular target: T1, human 4-1BB; assay: FACS, CHO-K1/h4-1BB cells [E]
[4] = molecular target: T2, cynomolgus monkey 4-1BB; assay: FACS, CHO-K1/cyno 4-1BB cells [C]

T1 sequence (Q07011 24-255): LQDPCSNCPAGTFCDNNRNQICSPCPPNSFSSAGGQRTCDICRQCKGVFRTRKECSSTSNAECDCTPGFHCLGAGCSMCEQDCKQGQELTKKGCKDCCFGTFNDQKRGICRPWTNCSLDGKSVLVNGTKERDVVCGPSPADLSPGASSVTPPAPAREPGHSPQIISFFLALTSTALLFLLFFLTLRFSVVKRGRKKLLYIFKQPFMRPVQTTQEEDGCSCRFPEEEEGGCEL

EC50 [1]: 4.25 nM | Maximum MFI [1]: 92400 MFI
B1: PR005189 (bispecific antibody)
polypeptide chain 1: QVQLVESGGGVVQPGRSLRLSCAASGFTFRSFGMHWVRQAPGKGLEWVAVISYDASNEYYADSVKGRFIISRDNSKDTLYLQMNSLRAGDTAVYYCAKGGGLRWYFAYWGQGTLVTVSSASTKGPSVFPLAPSSKSTSGGTAALGCLVKDYFPEPVTVSWNSGALTSGVHTFPAVLQSSGLYSLSSVVTVPSSSLGTQTYICNVNHKPSNTKVDKKVEPKSC
polypeptide chain 2: EIVMTQSPATLSVSPGERATLSCRASQSISSNLGWYQQKPGQAPRLLIYGASTRATGIPARFSGSGSGTEFTLTISSLQSEDFAVYYCQQYQSWPPLTFGGGTKVEIKRTVAAPSVFIFPPSDEQLKSGTASVVCLLNNFYPREAKVQWKVDNALQSGNSQESVTEQDSKDSTYSLSSTLTLSKADYEKHKVYACEVTHQGLSSPVTKSFNRGECEVQLVESGGGVVQPGGSLRLSCAASGFTFSNYAMTWVRQAPEKGLEWVSSISGSGVSTYYADSVKGRFTISRDNSKNTLYLQMTRLTAEDTAVYFCAKEGSSETDDHYYNVDVWGQGTTVTVSS[letters of human IgG1 Fc with changes not shown]
notes: Fab-HCAb: PR002408 Fab + PR001760 VH, human IgG1 (L234A, L235A)

EC50 [2]: 0.564 nM | Maximum MFI [2]: 15800 MFI | EC50 [3]: 0.755 nM | Maximum MFI [3]: 95700 MFI
B2: PR003487 (bispecific antibody, human IgG1, kappa)
light: EIVMTQSPATLSVSPGERATLSCRASQSISSNLGWYQQKPGQAPRLLIYGASTRATGIPARFSGSGSGTEFTLTISSLQSEDFAVYYCQQYQSWPPLTFGGGTKVEIKRTVAAPSVFIFPPSDEQLKSGTASVVCLLNNFYPREAKVQWKVDNALQSGNSQESVTEQDSKDSTYSLSSTLTLSKADYEKHKVYACEVTHQGLSSPVTKSFNRGEC
heavy: QVQLVESGGGVVQPGRSLRLSCAASGFTFRSFGMHWVRQAPGKGLEWVAVISYDASNEYYADSVKGRFIISRDNSKDTLYLQMNSLRAGDTAVYYCAKGGGLRWYFAYWGQGTLVTVSSASTKGPSVFPLAPSSKSTSGGTAALGCLVKDYFPEPVTVSWNSGALTSGVHTFPAVLQSSGLYSLSSVVTVPSSSLGTQTYICNVNHKPSNTKVDKKV[letters of human IgG1 Fc with changes not shown]EPKSSDKTHTPPPPPRTEVQLVESGGGVVQPGGSLRLSCAASGFTFSNYAMTWVRQAPEKGLEWVSSISGSGVSTYYADSVKGRFTISRDNSKNTLYLQMTRLTAEDTAVYFCAKEGSSETDDHYYNVDVWGQGTTVTVSSEVQLVESGGGVVQPGGSLRLSCAASGFTFSNYAMTWVRQAPEKGLEWVSSISGSGVSTYYADSVKGRFTISRDNSKNTLYLQMTRLTAEDTAVYFCAKEGSSETDDHYYNVDVWGQGTTVTVSS
notes: IgG-VH-VH hexavalent symmetric; PR002408 IgG x PR001760 VH; no second linker; IgG1 (L234A, L235A)

EC50 [3]: 0.773 nM | Maximum MFI [3]: 98200 MFI | EC50 [4]: 0.382 nM | Maximum MFI [4]: 13600 MFI
B3: PR003488 (bispecific antibody, human IgG1, kappa)
light: B2 light
heavy: QVQLVESGGGVVQPGRSLRLSCAASGFTFRSFGMHWVRQAPGKGLEWVAVISYDASNEYYADSVKGRFIISRDNSKDTLYLQMNSLRAGDTAVYYCAKGGGLRWYFAYWGQGTLVTVSSASTKGPSVFPLAPSSKSTSGGTAALGCLVKDYFPEPVTVSWNSGALTSGVHTFPAVLQSSGLYSLSSVVTVPSSSLGTQTYICNVNHKPSNTKVDKKV[letters of human IgG1 Fc with changes not shown]EPKSSDKTHTPPPPPRTEVQLVESGGGVVQPGGSLRLSCAASGFTFSNYAMTWVRQAPEKGLEWVSSISGSGVSTYYADSVKGRFTISRDNSKNTLYLQMTRLTAEDTAVYFCAKEGSSETDDHYYNVDVWGQGTTVTVSSGGGGSEVQLVESGGGVVQPGGSLRLSCAASGFTFSNYAMTWVRQAPEKGLEWVSSISGSGVSTYYADSVKGRFTISRDNSKNTLYLQMTRLTAEDTAVYFCAKEGSSETDDHYYNVDVWGQGTTVTVSS
notes: IgG-VH-VH hexavalent symmetric; PR002408 IgG x PR001760 VH; second linker GS_5; IgG1 (L234A, L235A)

EC50 [3]: 0.895 nM | Maximum MFI [3]: 101000 MFI | EC50 [4]: 0.576 nM | Maximum MFI [4]: 15200 MFI
B4: PR003489 (bispecific antibody, human IgG1, kappa)
light: B2 light
heavy: QVQLVESGGGVVQPGRSLRLSCAASGFTFRSFGMHWVRQAPGKGLEWVAVISYDASNEYYADSVKGRFIISRDNSKDTLYLQMNSLRAGDTAVYYCAKGGGLRWYFAYWGQGTLVTVSSASTKGPSVFPLAPSSKSTSGGTAALGCLVKDYFPEPVTVSWNSGALTSGVHTFPAVLQSSGLYSLSSVVTVPSSSLGTQTYICNVNHKPSNTKVDKKV[letters of human IgG1 Fc with changes not shown]EPKSSDKTHTPPPPPRTEVQLVESGGGVVQPGGSLRLSCAASGFTFSNYAMTWVRQAPEKGLEWVSSISGSGVSTYYADSVKGRFTISRDNSKNTLYLQMTRLTAEDTAVYFCAKEGSSETDDHYYNVDVWGQGTTVTVSSGGGGSGGGGSGGGGSEVQLVESGGGVVQPGGSLRLSCAASGFTFSNYAMTWVRQAPEKGLEWVSSISGSGVSTYYADSVKGRFTISRDNSKNTLYLQMTRLTAEDTAVYFCAKEGSSETDDHYYNVDVWGQGTTVTVSS
notes: IgG-VH-VH hexavalent symmetric; PR002408 IgG x PR001760 VH; second linker GS_15; IgG1 (L234A, L235A)

EC50 [1]: 4 nM | Maximum MFI [1]: 71200 MFI
B5: PR007165 (bispecific antibody, human IgG1)
polypeptide chain 1: B2 light
polypeptide chain 2: QVQLVESGGGVVQPGRSLRLSCAASGFTFRSFGMHWVRQAPGKGLEWVAVISYDASNEYYADSVKGRFIISRDNSKDTLYLQMNSLRAGDTAVYYCAKGGGLRWYFAYWGQGTLVTVSSASTKGPSVFPLAPSSKSTSGGTAALGCLVKDYFPEPVTVSWNSGALTSGVHTFPAVLQSSGLYSLSSVVTVPSSSLGTQTYICNVNHKPSNTKVDKKVEPKSCEVQLVESGGGVVQPGGSLRLSCAASGFTFSNYAMTWVRQAPEKGLEWVSSISGSGVSTYYADSVKGRFTISRDNSKNTLYLQMTRLTAEDTAVYFCAKEGSSETDDHYYNVDVWGQGTTVTVSS[letters of human IgG1 Fc with changes not shown]
notes: Fab-HCAb (structure E): PR002408 Fab + PR001760 VH, human IgG1 (L234A, L235A)

EC50 [4]: 0.248 nM | Maximum MFI [4]: 14500 MFI
B6: PR004158 (bispecific antibody, human IgG1, kappa)
light: EIVMTQSPASLSVSPGERATLSCRASQSVSSNLAWYQQKPGQAPRLLIYGASTRATGIPARVSGGGSGTEFTLTISSLQSEDFAVYYCQQYKNWPFTFGPGTKLEIKRTVAAPSVFIFPPSDEQLKSGTASVVCLLNNFYPREAKVQWKVDNALQSGNSQESVTEQDSKDSTYSLSSTLTLSKADYEKHKVYACEVTHQGLSSPVTKSFNRGEC
heavy: QVQLVQSGAEVKKPGSSMRVSCKASEDTFSSYAISWVRQAPGQGLEWMGGTAPIFGTTNYAQKFQGRVTITADKSTSTAYMELSSLRSEDTAVYYCARGGPYFDYWGQGTLVTVSSASTKGPSVFPLAPSSKSTSGGTAALGCLVKDYFPEPVTVSWNSGALTSGVHTFPAVLQSSGLYSLSSVVTVPSSSLGTQTYICNVNHKPSNTKVDKKV[letters of human IgG1 Fc with changes not shown]EPKSSDKTHTPPPPPRTEVQLVESGGGVVQPGGSLRLSCAASGFTFSNYAMTWVRQAPEKGLEWVSSISGSGVSTYYADSVKGRFTISRDNSKNTLYLQMTRLTAEDTAVYFCAKEGSSETDDHYYNVDVWGQGTTVTVSSGGGGSEVQLVESGGGVVQPGGSLRLSCAASGFTFSNYAMTWVRQAPEKGLEWVSSISGSGVSTYYADSVKGRFTISRDNSKNTLYLQMTRLTAEDTAVYFCAKEGSSETDDHYYNVDVWGQGTTVTVSS
notes: IgG-VH-VH hexavalent symmetric; PR002410 IgG x PR001760 VH; IgG1 (L234A, L235A)
